Measured values from PubChem BioAssay (NCATS).
This list was built around the results that the source calls inconclusive (neither active nor inactive); the mix of calls is not that of the screen. No potency is given beside an inconclusive call; the fits are too rough. Calls of active or inactive are those of the source. Calls come from the whole dose curve; as a rule, active = well fitted inhibition curve with a large enough effect; inconclusive = small, poorly fitted or top-dose-only effect; inactive = flat fitted curve, though single readings scatter.

target: Fructose-bisphosphate aldolase A (Oryctolagus cuniculus) (UniProt P00883); assay: qHTS Assay for Inhibitors of Fructose-1,6-bisphosphate Aldolase from Giardia Lamblia: Rabbit FBPA Selectivity (AID 2794); details: Rabbit muscle FBPA enzyme inhibition, selectivity counter-screen; note: nearly all actives have a fitted effect of over 60% in size
Sequence of UniProt P00883 (P00883 whole entry, looked up): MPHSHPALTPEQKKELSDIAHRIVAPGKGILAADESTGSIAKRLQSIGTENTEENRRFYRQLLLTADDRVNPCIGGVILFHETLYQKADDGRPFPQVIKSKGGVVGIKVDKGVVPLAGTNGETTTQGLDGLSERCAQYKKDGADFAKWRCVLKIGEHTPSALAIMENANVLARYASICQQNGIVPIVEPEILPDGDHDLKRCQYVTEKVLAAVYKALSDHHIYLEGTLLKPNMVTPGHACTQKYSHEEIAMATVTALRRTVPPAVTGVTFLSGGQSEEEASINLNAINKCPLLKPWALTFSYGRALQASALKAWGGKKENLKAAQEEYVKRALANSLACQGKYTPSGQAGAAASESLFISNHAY
How it was run: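 Cpd up to 57.5 uM final + coupling enzyme reagent, 10 min RT; add substrate/coupling system/AmpLite Red; 20 min RT; read fluor. 525/598 nm. Rabbit FBPA.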
Potency is the fitted concentration of half-maximal effect; tags give direction and shape of the fitted curve.

Row | Compound | Potency
1 | Cc1ccc(NC(=O)CN(C)C(=O)COc2cccc3cccnc23)cc1 | inconclusive [inhibitor, partial curve]
2 | CCc1nnc(N/N=C/c2c(C)[nH]c3ccccc23)n1N | inconclusive [inhibitor, single point]
3 | CCOC(=O)c1oc2c(O)c(O)ccc2c(=O)c1-c1nncn1-c1ccccc1 | inconclusive [inhibitor, partial curve]
4 | O=C(CN1C(=O)COc2ccccc21)Nc1ccc(F)cc1 | inconclusive [inhibitor, partial curve]
5 | Cc1cc(C)c(O)c(N)c1 | inconclusive [inhibitor, partial curve]
6 | O=c1cc(CN2CCN(Cc3ccccc3)CC2)c2ccc(O)c(O)c2o1 | inconclusive [inhibitor, full curve, poor fit]
7 | COc1ccc(OC)c(NC(=O)C2C3CCC(C3=C(C)C)C2C(=O)O)c1 (centres undefined) | inconclusive [inhibitor, partial curve]
8 | COc1ccc(NC(C)=O)cc1NC(C)c1nc2sc(C)c(C)c2c(=O)[nH]1 (centres undefined) | inconclusive [inhibitor, partial curve]
9 | c1cc2c(cc1NC1CCCCCC1)OCO2 | inconclusive [inhibitor, partial curve]
10 | Cc1ccc(NS(=O)(=O)c2cc(-c3cc(C)no3)ccc2C(C)C)nc1 | inconclusive [inhibitor, partial curve]
11 | CCN(CC)c1ccc(S(=O)(=O)N2CCOCC2)cc1NC(=O)CN1CCN(Cc2ccccc2)CC1 | inactive
12 | CC1CCCN(S(=O)(=O)c2ccc(C(=O)Nc3nnc(-c4ccccn4)o3)cc2)C1 (centres undefined) | inactive
13 | Cc1ccc(C(=S)N2CCN(Cc3ccccc3)CC2)s1 | inconclusive [inhibitor, single point]
14 | COc1cc(/C=C2\SC(c3ccc(C)cc3)=NC2=O)ccc1O | inactive
15 | CCOc1cc(/C=N/Nc2nnc(C)n2N)ccc1OC(C)=O | active: 5.8 µM
16 | Cc1no[n+]([O-])c1COc1cccc(/C=N/Nc2nncn2N)c1 | inconclusive [inhibitor, partial curve]

Row | Compound | Potency
17 | O=[N+]([O-])c1ccc(O)c(/C=N/Nc2ccccn2)c1 | inactive
18 | Cc1nnc(N/N=C/c2ccc(-c3ccc(Br)cc3)o2)n1N | inconclusive [inhibitor, single point]
19 | COc1cc(/C=C2\SC(c3ccc(C)cc3)=NC2=O)cc(OC)c1O | inconclusive [inhibitor, partial curve]
20 | COc1cc(CN2CCC(C(=O)NC3CCCC3)CC2)cc(OC)c1O | inconclusive [inhibitor, partial curve]
21 | CCc1nnc(N/N=C/c2ccc(O)c(OC)c2)n1N | inconclusive [inhibitor, partial curve]
22 | CCOc1ccc(N2CSC3=C(C#N)C(c4ccco4)CC(=O)N3C2)cc1 (centres undefined) | inconclusive [inhibitor, partial curve]
23 | COc1ccc(N2CSC3=C(C#N)C(c4cccc(OC)c4OC)CC(=O)N3C2)cc1 (centres undefined) | inconclusive [inhibitor, partial curve]
24 | CC(=O)NC(c1cccs1)c1cc([N+](=O)[O-])c2cccnc2c1O (centres undefined) | inconclusive [inhibitor, partial curve]
25 | O=C(Nc1nccc(-c2cccs2)n1)c1ccccc1Cl | active: 25.1 µM
26 | CNc1cccccc1=S | inconclusive [inhibitor, partial curve]
27 | NCc1c(O)ccc2ccccc12 | inconclusive [inhibitor, partial curve]
28 | Cc1nc(N)sc1-c1csc(Nc2cccc(C(=O)O)c2)n1 | active: 31.6 µM
29 | Cn1c(=O)c(C(=O)Nc2ncccc2O)c(O)c2ccccc21 | inconclusive [inhibitor, partial curve]
30 | Cc1ccc(Nc2cc(C)c3c(O)cccc3n2)cc1C | inconclusive [inhibitor, partial curve]
31 | COc1ccc2c(c1)-c1nc(/N=C/c3cccc(OC)c3O)sc1CC2 | inconclusive [inhibitor, partial curve, poor fit]

tested on: not listed separately; assay: qHTS Assay for Inhibitors of Fructose-1,6-bisphosphate Aldolase from Giardia Lamblia: Coupling assay counterscreen confirmation (AID 2795); details: GAPDH coupling enzyme counterscreen, biochemical; note: nearly all actives have a fitted effect of over 55% in size
How it was run: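 Activity against the detection chain, not aldolase, was measured using glyceraldehyde-3-phosphate with GAPDH-based coupling and AmpLite Red. Final compound levels ran up to 57.5 uM; signal was read by fluorescence after 20 min at RT.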

Row | Compound | Potency
32 | Cc1ccc(NC(=O)CN(C)C(=O)COc2cccc3cccnc23)cc1 | inconclusive [inhibitor, partial curve]
33 | COc1ccc(OC)c(NC(=O)C2C3CCC(C3=C(C)C)C2C(=O)O)c1 (centres undefined) | inconclusive [inhibitor, partial curve]
34 | COc1ccc(NC(C)=O)cc1NC(C)c1nc2sc(C)c(C)c2c(=O)[nH]1 (centres undefined) | inconclusive [inhibitor, single point]
35 | Cc1ccc(NS(=O)(=O)c2cc(-c3cc(C)no3)ccc2C(C)C)nc1 | inconclusive [inhibitor, partial curve]
36 | Cc1ccc(C(=S)N2CCN(Cc3ccccc3)CC2)s1 | inconclusive [inhibitor, single point]
37 | COc1cc(/C=C2\SC(c3ccc(C)cc3)=NC2=O)cc(OC)c1O | inconclusive [inhibitor, partial curve]
38 | COc1cc(CN2CCC(C(=O)NC3CCCC3)CC2)cc(OC)c1O | inconclusive [inhibitor, partial curve]
39 | CCOc1ccc(N2CSC3=C(C#N)C(c4ccco4)CC(=O)N3C2)cc1 (centres undefined) | inconclusive [inhibitor, full curve]
40 | COc1ccc(N2CSC3=C(C#N)C(c4cccc(OC)c4OC)CC(=O)N3C2)cc1 (centres undefined) | inconclusive [inhibitor, full curve]
41 | CC(=O)NC(c1cccs1)c1cc([N+](=O)[O-])c2cccnc2c1O (centres undefined) | active: 13 µM
42 | NCc1c(O)ccc2ccccc12 | inconclusive [inhibitor, full curve, poor fit]
43 | Cc1ccc(Nc2cc(C)c3c(O)cccc3n2)cc1C | active: 20.6 µM
44 | COc1ccc2c(c1)-c1nc(/N=C/c3cccc(OC)c3O)sc1CC2 | inconclusive [inhibitor, partial curve]
